Experimental data from the supplement of paper PMC8728848.
This is one part of the list.

Legend:
Assay in all cases: glycan array binding signal (z-score within array); higher = stronger binding
Conditions in all cases: glycan notation: IUPAC condensed, linker removed
[1] = target: Gal(b1-4)GlcNAc(b1-3)Gal(b1-4)GlcNAc(b1-3)Gal(b1-4)GlcNAc
Procedure, shortened: (§1)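 The binding signal is a Z-score computed within each array and averaged over linkers. Arrays of the same protein sequence at different concentrations or buffers were also averaged together. Data originate from 3228 arrays in the Consortium for Functional Glycomics database, kept only where the protein sequence was available.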

[2] = target: Gal(b1-4)GlcNAc(b1-3)Gal(b1-4)[Fuc(a1-3)]GlcNAc(b1-3)Gal(b1-4)[Fuc(a1-3)]GlcNAc
Procedure, shortened: as §1

[3] = target: Gal(b1-4)GlcNAc(b1-3)GalNAc
Procedure, shortened: as §1

[4] = target: Gal(b1-4)GlcNAc(b1-3)[Gal(b1-4)GlcNAc(b1-6)]Gal(b1-4)GlcNAc
Procedure, shortened: as §1

[5] = target: Gal(b1-4)GlcNAc(b1-3)[GlcNAc(b1-6)]Gal(b1-4)GlcNAc
Procedure, shortened: as §1

[6] = target: Gal(b1-4)GlcNAc(b1-6)Gal(b1-4)GlcNAc
Procedure, shortened: as §1

[7] = target: Gal(b1-4)GlcNAc(b1-6)Gal(b1-4)GlcNAc(b1-6)GalNAc
Procedure, shortened: as §1

[8] = target: Gal(b1-4)GlcNAc(b1-6)GalNAc
Procedure, shortened: as §1

[9] = target: Gal(b1-4)GlcNAc(b1-6)[Gal(b1-3)]GalNAc
Procedure, shortened: as §1

Gal3S(b1-3)GalNAc = target: Gal3S(b1-3)GalNAc
Procedure, shortened: as §1

Gal3S(b1-3)GlcNAc = target: Gal3S(b1-3)GlcNAc
Procedure, shortened: as §1

[10] = target: Gal3S(b1-3)[Fuc(a1-4)]GlcNAc
Procedure, shortened: as §1

Gal3S(b1-4)Glc = target: Gal3S(b1-4)Glc
Procedure, shortened: as §1

Gal3S(b1-4)Glc6S = target: Gal3S(b1-4)Glc6S
Procedure, shortened: as §1

Gal3S(b1-4)GlcNAc = target: Gal3S(b1-4)GlcNAc
Procedure, shortened: as §1

Gal3S(b1-4)GlcNAc6S = target: Gal3S(b1-4)GlcNAc6S
Procedure, shortened: as §1

[11] = target: Gal3S(b1-4)[Fuc(a1-3)]Glc
Procedure, shortened: as §1

Gal3S4S(b1-4)GlcNAc = target: Gal3S4S(b1-4)GlcNAc
Procedure, shortened: as §1

Gal3S6S(b1-4)GlcNAc = target: Gal3S6S(b1-4)GlcNAc
Procedure, shortened: as §1

Gal3S6S(b1-4)GlcNAc6S = target: Gal3S6S(b1-4)GlcNAc6S
Procedure, shortened: as §1

Gal4S(b1-4)GlcNAc = target: Gal4S(b1-4)GlcNAc
Procedure, shortened: as §1

Gal4S6S(b1-4)GlcNAc = target: Gal4S6S(b1-4)GlcNAc
Procedure, shortened: as §1

Gal6S(b1-4)Glc = target: Gal6S(b1-4)Glc
Procedure, shortened: as §1

Gal6S(b1-4)Glc6S = target: Gal6S(b1-4)Glc6S
Procedure, shortened: as §1

Gal6S(b1-4)GlcNAc = target: Gal6S(b1-4)GlcNAc
Procedure, shortened: as §1

Gal6S(b1-4)GlcNAc6S = target: Gal6S(b1-4)GlcNAc6S
Procedure, shortened: as §1

GalNAc(a1-3)Gal = target: GalNAc(a1-3)Gal
Procedure, shortened: as §1

GalNAc(a1-3)GalNAc = target: GalNAc(a1-3)GalNAc
Procedure, shortened: as §1

GalNAc(b1-3)Gal = target: GalNAc(b1-3)Gal
Procedure, shortened: as §1

[12] = target: GalNAc(b1-3)Gal(a1-4)Gal(b1-4)GlcNAc
Procedure, shortened: as §1

GalNAc(b1-3)GalNAc = target: GalNAc(b1-3)GalNAc
Procedure, shortened: as §1

GalNAc(b1-4)GlcNAc = target: GalNAc(b1-4)GlcNAc
Procedure, shortened: as §1

Glc(a1-4)Glc = target: Glc(a1-4)Glc
Procedure, shortened: as §1

Glc(a1-6)Glc(a1-6)Glc = target: Glc(a1-6)Glc(a1-6)Glc
Procedure, shortened: as §1

Glc(b1-4)Glc = target: Glc(b1-4)Glc
Procedure, shortened: as §1

Glc(b1-6)Glc = target: Glc(b1-6)Glc
Procedure, shortened: as §1

GlcA(b1-3)Gal = target: GlcA(b1-3)Gal
Procedure, shortened: as §1

GlcA(b1-3)GlcNAc = target: GlcA(b1-3)GlcNAc
Procedure, shortened: as §1

GlcA(b1-6)Gal = target: GlcA(b1-6)Gal
Procedure, shortened: as §1

[13] = target: GlcNAc(a1-3)Gal(b1-4)GlcNAc
Procedure, shortened: as §1

[14] = target: GlcNAc(a1-6)Gal(b1-4)GlcNAc
Procedure, shortened: as §1

[15] = target: GlcNAc(b1-2)Gal(b1-3)GalNAc
Procedure, shortened: as §1

[16] = target: GlcNAc(b1-2)Man(a1-3)[GlcNAc(b1-2)Man(a1-6)]Man(b1-4)GlcNAc(b1-4)GlcNAc
Procedure, shortened: as §1

GlcNAc(b1-3)Gal = target: GlcNAc(b1-3)Gal
Procedure, shortened: as §1

[17] = target: GlcNAc(b1-3)Gal(b1-3)GalNAc
Procedure, shortened: as §1

B1: CBM32-4 (Clostridium perfringens), P26831 (protein)
chain: MGSSHHHHHHSSGLVPRGSHMASVYEPSLVDAYVGDDGAKKAVDGDLKTRVKFLGAPSTGDTIVYDLGQEILVDNLKYVVLDTEVDHVRDGKIQLSLDGETWTDAINIGDGVENGVDDMFSTPLKNGYKHGNQSGGIVPIDSAYVEGDNLNQKARYVRILFTAPYRHRWTVINELMINNGEYIPTVNDPT
glycan array binding signal (z-score) [1]: 0.696
glycan array binding signal (z-score) [2]: -0.457
glycan array binding signal (z-score) [3]: -0.425
glycan array binding signal (z-score) [4]: -0.378
glycan array binding signal (z-score) [5]: -0.257
glycan array binding signal (z-score) [6]: -0.385
glycan array binding signal (z-score) [7]: -0.304
glycan array binding signal (z-score) [8]: -0.391
glycan array binding signal (z-score) [9]: -0.383
glycan array binding signal (z-score) (Gal3S(b1-3)GalNAc): -0.264
glycan array binding signal (z-score) (Gal3S(b1-3)GlcNAc): 0.482
glycan array binding signal (z-score) [10]: -0.312
glycan array binding signal (z-score) (Gal3S(b1-4)Glc): 0.108
glycan array binding signal (z-score) (Gal3S(b1-4)Glc6S): 3.44
glycan array binding signal (z-score) (Gal3S(b1-4)GlcNAc): -0.195
glycan array binding signal (z-score) (Gal3S(b1-4)GlcNAc6S): 3.83
glycan array binding signal (z-score) [11]: -0.252
glycan array binding signal (z-score) (Gal3S4S(b1-4)GlcNAc): 3.87
glycan array binding signal (z-score) (Gal3S6S(b1-4)GlcNAc): 1.94
glycan array binding signal (z-score) (Gal3S6S(b1-4)GlcNAc6S): 5.67
glycan array binding signal (z-score) (Gal4S(b1-4)GlcNAc): -0.149
glycan array binding signal (z-score) (Gal4S6S(b1-4)GlcNAc): 2.67
glycan array binding signal (z-score) (Gal6S(b1-4)Glc): 0.459
glycan array binding signal (z-score) (Gal6S(b1-4)Glc6S): 4.96
glycan array binding signal (z-score) (Gal6S(b1-4)GlcNAc): -0.241
glycan array binding signal (z-score) (Gal6S(b1-4)GlcNAc6S): 4.9
glycan array binding signal (z-score) (GalNAc(a1-3)Gal): -0.294
glycan array binding signal (z-score) (GalNAc(a1-3)GalNAc): -0.439
glycan array binding signal (z-score) (GalNAc(b1-3)Gal): -0.365
glycan array binding signal (z-score) [12]: -0.458
glycan array binding signal (z-score) (GalNAc(b1-3)GalNAc): -0.49
glycan array binding signal (z-score) (GalNAc(b1-4)GlcNAc): -0.44
glycan array binding signal (z-score) (Glc(a1-4)Glc): -0.347
glycan array binding signal (z-score) (Glc(a1-6)Glc(a1-6)Glc): -0.125
glycan array binding signal (z-score) (Glc(b1-4)Glc): 0.56
glycan array binding signal (z-score) (Glc(b1-6)Glc): -0.271
glycan array binding signal (z-score) (GlcA(b1-3)Gal): -0.024
glycan array binding signal (z-score) (GlcA(b1-3)GlcNAc): -0.121
glycan array binding signal (z-score) (GlcA(b1-6)Gal): 0.487
glycan array binding signal (z-score) [13]: -0.069
glycan array binding signal (z-score) [14]: -0.436
glycan array binding signal (z-score) [15]: -0.264
glycan array binding signal (z-score) [16]: -0.4
glycan array binding signal (z-score) (GlcNAc(b1-3)Gal): -0.348
glycan array binding signal (z-score) [17]: -0.276
